# Source: PubChem BioAssay AID504332 (National Center for Advancing Translational Sciences (NCATS), 2011)
# In all, about 350,000 compounds went through this assay and about 31,000 (8.9%) were called active. Inconclusive results, whose numbers are uncertain, are shown with a selection of clear calls. The call rests on the fitted dose curve; in most records, active means well fitted inhibition curve with a large enough effect; inconclusive means small, poorly fitted or top-dose-only effect; inactive means no such curve, though single readings can be large or run the other way. Potencies beside an inconclusive call are fits to weak or partial responses and may not hold up.
# Target: Histone-lysine N-methyltransferase EHMT2 (Homo sapiens) (UniProt Q96KQ7)
# Sequence of UniProt Q96KQ7 (Q96KQ7 whole entry, looked up): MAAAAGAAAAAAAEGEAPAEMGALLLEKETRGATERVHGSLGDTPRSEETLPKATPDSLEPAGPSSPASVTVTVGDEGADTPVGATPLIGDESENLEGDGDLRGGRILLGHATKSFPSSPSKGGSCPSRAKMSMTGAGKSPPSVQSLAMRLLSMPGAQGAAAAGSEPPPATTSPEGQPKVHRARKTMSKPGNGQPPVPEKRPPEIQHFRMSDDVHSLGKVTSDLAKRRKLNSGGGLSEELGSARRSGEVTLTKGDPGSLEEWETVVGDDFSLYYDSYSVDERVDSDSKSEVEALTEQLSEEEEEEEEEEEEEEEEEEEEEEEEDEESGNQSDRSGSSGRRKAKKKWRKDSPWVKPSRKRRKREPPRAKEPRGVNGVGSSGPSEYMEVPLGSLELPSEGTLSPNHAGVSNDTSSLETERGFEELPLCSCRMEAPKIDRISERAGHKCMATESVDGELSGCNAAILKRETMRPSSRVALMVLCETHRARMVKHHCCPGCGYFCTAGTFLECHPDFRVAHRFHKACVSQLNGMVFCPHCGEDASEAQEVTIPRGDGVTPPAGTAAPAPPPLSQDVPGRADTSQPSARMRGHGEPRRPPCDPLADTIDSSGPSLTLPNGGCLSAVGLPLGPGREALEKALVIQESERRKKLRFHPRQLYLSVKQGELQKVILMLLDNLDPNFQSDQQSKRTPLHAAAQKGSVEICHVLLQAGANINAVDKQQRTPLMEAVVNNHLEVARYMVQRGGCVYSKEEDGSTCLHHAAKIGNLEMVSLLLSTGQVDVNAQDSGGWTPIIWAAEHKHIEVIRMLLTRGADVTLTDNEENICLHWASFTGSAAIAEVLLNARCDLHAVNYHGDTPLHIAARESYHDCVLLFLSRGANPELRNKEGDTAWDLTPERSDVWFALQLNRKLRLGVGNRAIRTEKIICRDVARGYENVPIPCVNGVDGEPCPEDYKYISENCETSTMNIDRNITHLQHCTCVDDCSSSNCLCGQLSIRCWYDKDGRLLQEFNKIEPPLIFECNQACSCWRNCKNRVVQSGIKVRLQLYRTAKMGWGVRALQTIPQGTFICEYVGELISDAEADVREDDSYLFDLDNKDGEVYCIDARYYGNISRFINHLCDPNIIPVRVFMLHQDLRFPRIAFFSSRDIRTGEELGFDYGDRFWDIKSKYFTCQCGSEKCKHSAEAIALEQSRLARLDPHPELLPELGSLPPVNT
# Assay: qHTS Assay for Inhibitors of Histone Lysine Methyltransferase G9a; further: nearly all actives have a fitted effect of over 75% in size
# Settings: G9a H3K9 monomethylation, AlphaScreen, 2 h; activity, negative = inhibition: at 59 µM (top of the series) unless noted
# How it was run: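 Compounds were preincubated with 20 nM G9a for 15 min, after which biotinylated H3K9 peptide (500 nM) and SAM (20 uM) started a 2 h room-temperature reaction. Monomethylated product was quantified by antibody-based AlphaScreen chemiluminescence.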
# On the % scale 0 is the no-effect control and ±100 the full control effect; potency means the concentration at half of the fitted maximal effect; tags describe the fitted curve by direction and shape.
Structure (SMILES),Potency,"activity, negative = inhibition"
COc1cccc(NC(=S)N(CCCN2CCN(C)CC2)Cc2ccco2)c1,"inconclusive: 39.8 µM [inhibitor, partial curve]",–
Clc1ccc(-c2csc(-c3nc(-c4ccc(Br)s4)cs3)n2)cc1,–,inactive: 0.603%
O=C(COC(=O)c1ccc(Br)o1)Nc1nc2ccccc2s1,–,inactive: -36.5%
COc1ccc(NC(=O)c2cc(-c3ccccn3)nc3ccccc23)cc1S(=O)(=O)N(C)C,"inconclusive: 3.16 µM [inhibitor, single point]",–
CCOC(=O)CSc1nnc(-c2ccco2)n1-c1ccc(C)cc1,–,inactive: -9.78% [at 12.7 µM]
Cc1ccc(NC(=O)Cn2nnc(C(=O)NCCc3ccccc3)c2N)cc1,"inconclusive: 3.55 µM [inhibitor, single point]",–
COc1cc(/C=C2/C(=O)NN(c3ccc(Cl)c(Cl)c3)C2=O)cc([N+](=O)[O-])c1O,active: 17.8 µM,–
O=C(NCc1ccc(F)cc1)C(=O)NCC1CCCN1S(=O)(=O)c1ccccc1 (configuration not stated),–,inactive: -11% [at 102 µM]
CCC(C)Sc1oc(-c2ccco2)nc1S(=O)(=O)c1ccc(Cl)cc1 (configuration not stated),–,inactive: -8.42%
CC(=O)NC(CCS(C)(=O)=O)C(=O)Nc1cccc(Cl)c1Cl (configuration not stated),"inconclusive: 63.1 µM [inhibitor, partial curve, poor fit]",–
O=C(O)c1cccc(NS(=O)(=O)c2ccc(S(=O)(=O)N3CCOCC3)cc2)c1,"inconclusive: 56.2 µM [inhibitor, single point]",–
CCOC(=O)N1CCC(N2Cc3cccc(C(=O)Nc4ccc(CC)cc4)c3C2=O)CC1,"inconclusive: 3.16 µM [inhibitor, partial curve, poor fit]",–
Cc1c(NC(=O)C2CCCN2C(=O)c2cccs2)c(=O)n(-c2ccccc2)n1C (configuration not stated),"inconclusive: 0.316 µM [inhibitor, partial curve, poor fit]",–
Cc1ccccc1NC(=O)CSc1nnc(Cc2ccccc2)o1,"inconclusive: 31.6 µM [inhibitor, single point]",–
COc1ccc2oc(C)c(C(=O)NN)c2c1,active: 10 µM,–
COc1ccc(NC(=O)CSc2nnnn2-c2ccccc2F)cc1,"inconclusive: 7.08 µM [inhibitor, single point]",–
O=c1c(-n2cncn2)c[nH]n1-c1cccc(Cl)n1,"inconclusive: 89.1 µM [inhibitor, single point]",–
Cc1ccc(C(=O)CSc2ncnc3ccccc23)o1,active: 25.1 µM,–
CNC(=O)CN1C(=O)CSc2ncccc21,–,inactive: -14.3% [at 102 µM]
Cc1ccc(/C=N/N2CCCCC2)o1,"inconclusive: 89.1 µM [inhibitor, single point]",–
O=C(NC(=S)NCc1ccccc1)c1ccccc1,active: 44.7 µM,–
COc1cc(CC(=O)Nc2ccccc2N2CCOCC2)cc(OC)c1OC,"inconclusive: 89.1 µM [inhibitor, single point]",–
COc1cc(SC)ccc1C(=O)OC(C)C(=O)NC1CCCC1 (configuration not stated),"inconclusive: 35.5 µM [inhibitor, partial curve, poor fit]",–
Cc1ccc(Nc2c(-c3ccc(N4CCOCC4)cc3)nc3cccc(C)n23)cc1,"inconclusive: 10 µM [inhibitor, partial curve]",–

Structure (SMILES),Potency,"activity, negative = inhibition"
Cc1nc(Nc2ccccc2)sc1C(=O)c1ccc(F)cc1,"inconclusive: 100 µM [inhibitor, single point]",–
COc1ccc2[nH]c(-c3ccc(F)cc3F)cc(=O)c2c1,–,inactive: 1.56% [at 102 µM]
Cc1cccc(/C=N/NC(=O)CN2CCCCCCC2)c1,"inconclusive: 25.1 µM [inhibitor, single point]",–
CCOC(=O)c1c(NC(=O)c2ccccc2C)sc2c1CC(C)(C)OC2,"inconclusive: 7.94 µM [inhibitor, full curve, poor fit]",–
COc1cccc2[nH]c3c(Cl)ncnc3c12,"inconclusive: 8.91 µM [inhibitor, full curve, poor fit]",–
Cc1nc(-c2cccc(NC(=O)C(C)Oc3ccccc3)c2)cs1 (configuration not stated),–,inactive: 30.9% [at 102 µM]
COc1ccc(-n2c(Cc3cccn3C)nnc2SCC(=O)N2CCCC2)cc1,active: 44.7 µM,–
CC(C)(C)n1cnc2cc(NS(=O)(=O)c3ccc(Br)cc3)ccc21,"inconclusive: 89.1 µM [inhibitor, single point]",–
N#Cc1ccccc1OCC(=O)OCC(=O)NC1CCCC1,"inconclusive: 0.891 µM [inhibitor, partial curve, poor fit]",–
CCOC(=O)c1ccc(NC2(c3ccccc3)C(=O)c3ccccc3C2=O)cc1,"inconclusive: 14.1 µM [inhibitor, partial curve]",–
COC(=O)c1ccc(NC(=S)NCc2ccco2)cc1,active: 50.1 µM,–
COc1ccc(NC(=O)Nc2cccs2)cc1OC,active: 44.7 µM,–
Cc1cc(NC(=O)c2ccco2)sc1C,"inconclusive: 35.5 µM [inhibitor, single point]",–
O=C(c1nc2ccc(Cl)cn2c1CN1CCC[C@H]1CO)N1CCCCCCC1,"inconclusive: 89.1 µM [inhibitor, single point]",–
CCOc1ccccc1C(=O)Nc1ccc(-n2nncc2-c2ccccc2)cc1,–,inactive: -2.31%
COc1c(-c2ccc(O)cc2)oc2cc(O)cc(O)c2c1=O,"inconclusive: 6.31 µM [inhibitor, single point]",–
O=C(C1CC(=O)N(c2ccc(F)cc2)C1)N1CCCCCC1 (configuration not stated),"inconclusive: 79.4 µM [inhibitor, single point]",–
CCc1cc(C(=O)OC)c(NC(=O)CC2Sc3ccc(C(F)(F)F)cc3NC2=O)s1 (configuration not stated),"inconclusive: 89.1 µM [inhibitor, single point]",–
COc1cc(OC)c(NS(=O)(=O)c2cc3c(cc2C)N(C(C)=O)CCO3)cc1Cl,–,inactive: -28.9%
CC1=C(/C=N/Nc2ccc([N+](=O)[O-])cc2[N+](=O)[O-])C(C)(C)CCC1,active: 20 µM,–
CCSCc1nnc(SCC(=O)Nc2nc3ccccc3s2)n1C,–,inconclusive: -86.4% [inhibitor]
CCOC(=O)c1sc2nc3c(SCC(=O)O)cc(C(=O)c4ccccc4O)cn3c(=O)c2c1C,active: 31.6 µM,–
CCN(CC)C(=O)CC(c1ccccc1)c1ccco1 (configuration not stated),"inconclusive: 31.6 µM [inhibitor, partial curve, poor fit]",–
CCOc1ccc(C(=O)C(C)OC(=O)Cn2cnc3c2c(=O)n(C)c(=O)n3C)cc1 (configuration not stated),"inconclusive: 44.7 µM [inhibitor, partial curve, poor fit]",–

Structure (SMILES),Potency,"activity, negative = inhibition"
COc1cccc(C2/C(=C(/O)c3ccccc3)C(=O)C(=O)N2Cc2ccco2)c1 (configuration not stated),active: 56.2 µM,–
CCCC(C(=O)NC1CCCC1)N(C(=O)Cn1nnc(-c2ccc(C)o2)n1)c1cccc(O)c1 (configuration not stated),"inconclusive: 89.1 µM [inhibitor, single point]",–
CCC(=O)NC(NC(=S)Nc1ccccc1Br)C(Cl)(Cl)Cl (configuration not stated),–,inactive: -8.28%
CCc1n[nH]c(=S)n1/N=C/c1cccc2ccccc12,active: 1.58 µM,–
CN(C)c1ccc(CNC(=O)C2CCCN(S(=O)(=O)c3ccc4c(c3)CCCC(=O)N4)C2)cc1 (configuration not stated),"inconclusive: 17.8 µM [inhibitor, partial curve, poor fit]",–
O=c1c2ccc([N+](=O)[O-])cc2ncn1CCOc1cccc(Br)c1,"inconclusive: 15.8 µM [inhibitor, full curve, poor fit]",–
CSCCC(NC(=O)c1ccccc1Cl)C(=O)Nc1ccncc1 (configuration not stated),active: 39.8 µM,–
Cc1ccc(C[C@@H](NS(=O)(=O)c2ccc(C(=O)O)cc2)C(=O)O)cc1,–,inactive: 0.693% [at 12.7 µM]
NC(=O)c1c(NC(=O)c2cc(-c3ccc(F)cc3)on2)sc2c1CCCC2,active: 1.78 µM,–
O=C(CN1C(=O)NC2(CCCC2)C1=O)Nc1nc2c(F)cc(F)cc2s1,–,inactive: -1.55% [at 2.33 µM]
CCN(Cc1cn2cccnc2n1)C1CCCCC1,–,inactive: 2.61% [at 102 µM]
Cn1c(=O)[nH]c(=O)c2c1[nH]c(=S)n2Cc1ccc(Cl)cc1,active: 0.891 µM,–
Cc1nnc(N/N=C/c2ccccc2C(F)(F)F)n1N,active: 44.7 µM,–
C=CCn1c(C)cc(-c2csc(N)n2)c1C,"inconclusive: 6.31 µM [inhibitor, single point]",–
Cc1cccc(-n2c(Cc3cc(=O)[nH]c(=O)[nH]3)nnc2SC(C)C)c1,"inconclusive: 35.5 µM [inhibitor, single point]",–
CCCn1cc(S(=O)(=O)CC(=O)N2CCc3ccccc32)c2ccccc21,"inconclusive: 1 µM [inhibitor, full curve, poor fit]",–
S=C(NCC1CCCO1)NC1CCCCC1 (configuration not stated),active: 50.1 µM,–
COC(=O)c1onc(-c2c(OC)cc(OC)cc2OC)c1C(=O)OC,"inconclusive: 25.1 µM [inhibitor, single point]",–
CSc1ccc([C@H]2CN3CCC[C@H]3c3ccccc32)cc1,"inconclusive: 12.6 µM [inhibitor, partial curve, poor fit]",–
Cc1ncc(CO)c2c1Oc1nc(-c3ccccc3)nc(SCC(=O)N3CCOCC3)c1C2,active: 31.6 µM,–
CC(=O)c1cc(C(=O)N2CCc3c([nH]c4ccccc34)C2C2CCCCC2)[nH]n1 (configuration not stated),"inconclusive: 44.7 µM [inhibitor, partial curve, poor fit]",–
CCCN=C(C)C1=C(O)c2ccccc2C1=O,"inconclusive: 100 µM [inhibitor, single point]",–
COc1ccccc1-c1nc(C#N)c(N2CCN(Cc3ccccc3)CC2)o1,–,inconclusive: -88.8% [inhibitor]
O=C(N/N=C/c1ccc([N+](=O)[O-])s1)c1ccccc1,"inconclusive: 79.4 µM [inhibitor, single point]",–
